In the antibiotic and cytotoxicity screens of Wong et al. (2023):
The list shows a part of the results.

Tests used:
[1] = tested on: HSkMC (human skeletal muscle cells); experiment: cytotoxicity call (relative viability < 0.9); settings: 10 µM
[2] = tested on: HepG2; experiment: cytotoxicity call (relative viability < 0.9); settings: 10 µM
[3] = tested on: S. aureus RN4220; experiment: growth inhibition call (relative growth <= 0.2); settings: 50 µM

Row | SMILES | cytotoxicity call [1] | cytotoxicity call [2] | growth inhibition call [3]
1 | C[C@@H]1CCCCO[C@@H](CN(C)C(=O)Nc2ccc3c(c2)OCO3)[C@@H](C)CN([C@H](C)CO)C(=O)c2cc(NS(=O)(=O)c3ccc(F)cc3)ccc2O1 | inactive | inactive | inactive
2 | C[C@H](CO)N1C[C@H](C)[C@@H](CN(C)S(=O)(=O)c2ccccc2)Oc2c(NC(=O)Nc3cccc4ccccc34)cccc2C1=O | inactive | inactive | inactive
3 | C[C@@H]1COC(=O)[C@@H](Cc2ccc(F)cc2)CCC=CC[C@@H](CC(=O)N[C@H](CO)Cc2ccccc2)C(=O)N1 | inactive | inactive | inactive
4 | O=C(Nc1ccc2c(c1)[C@@H]1C[C@@H](CC(=O)N3CCc4ccccc4C3)O[C@H](CO)[C@@H]1O2)C1CCOCC1 | inactive | inactive | inactive
5 | Cc1noc(C)c1NC(=O)Nc1ccc2c(c1)C(=O)N([C@@H](C)CO)C[C@H](C)[C@@H](CN(C)Cc1ccc(Cl)c(Cl)c1)O2 | inactive | inactive | inactive
6 | COc1ccc(S(=O)(=O)Nc2ccc3c(c2)CC(=O)N([C@H](C)CO)C[C@@H](C)[C@H](CN(C)Cc2ccc(Cl)c(Cl)c2)O3)cc1 | inactive | active | inactive
7 | COc1ccc(CN(C)C[C@@H]2Oc3c(NC(=O)c4cc(C)nn4C)cccc3C(=O)N([C@@H](C)CO)C[C@H]2C)cc1 | inactive | inactive | inactive
8 | C[C@@H]1CN([C@H](C)CO)C(=O)Cc2cc(NC(=O)Cc3cn(C)c4ccccc34)ccc2O[C@H]1CN(C)C(=O)Nc1cccc2ccccc12 | inactive | inactive | inactive
9 | C[C@@H]1CCCCO[C@@H](CN(C)C(=O)c2ccccc2)[C@@H](C)CN([C@H](C)CO)C(=O)c2cc(NC(=O)NC3CCCCC3)ccc2O1 | inactive | inactive | inactive
10 | NCCCC[C@@H]1NC(=O)[C@H]2C[C@@H](C(=O)NCc3ccc(F)cc3)[C@@H](c3cccc(OCCO)c3)N2C1=O | inactive | inactive | inactive
11 | CC1=NNC(=O)CC1 | inactive | inactive | inactive
12 | C[C@H]1CN([C@@H](C)CO)C(=O)c2cccc(NC(=O)c3cnccn3)c2O[C@@H]1CN(C)S(=O)(=O)c1cn(C)cn1 | inactive | inactive | inactive
13 | Cc1noc(C)c1S(=O)(=O)Nc1ccc2c(c1)CC(=O)N([C@H](C)CO)C[C@H](C)[C@@H](CN(C)Cc1ccc(Oc3ccccc3)cc1)O2 | inactive | active | inactive
14 | C[C@H](CO)N1C[C@H](C)[C@H](CN(C)S(=O)(=O)c2cccs2)Oc2c(NS(=O)(=O)c3ccccc3)cccc2C1=O | inactive | inactive | inactive
15 | C[C@H]1CN([C@@H](C)CO)C(=O)Cc2cc(NS(=O)(=O)c3cn(C)cn3)ccc2O[C@H]1CN(C)S(=O)(=O)c1ccc(F)cc1 | inactive | inactive | inactive
16 | O=C(CN1CCOCC1)N[C@@H]1CC[C@@H](CCNC(=O)C2CCC2)O[C@H]1CO | inactive | inactive | inactive
17 | COc1ccc(S(=O)(=O)Nc2cccc3c2O[C@@H](CN(C)S(=O)(=O)c2cccs2)[C@@H](C)CN([C@H](C)CO)C3=O)cc1 | inactive | inactive | inactive
18 | CC/N=c1\sc(C(=O)OC)cc(=O)n1CC | inactive | inactive | inactive
19 | C[C@H](CO)N1C[C@H](C)[C@@H](CN(C)S(=O)(=O)c2ccccc2)Oc2c(NS(C)(=O)=O)cccc2C1=O | inactive | inactive | inactive
20 | COc1ccccc1NC(=O)N(C)C[C@@H]1Oc2ncc(Br)cc2C(=O)N([C@H](C)CO)C[C@@H]1C | inactive | inactive | inactive
21 | COc1ccccc1CNC(=O)C[C@@H]1C[C@@H]2c3cc(NC(=O)NC4CCCC4)ccc3O[C@@H]2[C@@H](CO)O1 | inactive | inactive | inactive
22 | C[C@@H]1CCCCO[C@@H](CN(C)C(=O)Nc2ccc(C(F)(F)F)cc2)[C@H](C)CN([C@@H](C)CO)C(=O)c2cc(NC(=O)NC3CCCCC3)ccc2O1 | inactive | inactive | inactive
23 | C[C@@H]1CCCCO[C@@H](CN(C)Cc2ccc3c(c2)OCO3)[C@H](C)CN([C@H](C)CO)C(=O)c2cc(NC(=O)Nc3ccc(C(F)(F)F)cc3)ccc2O1 | active | active | inactive
24 | COCC(=O)N1C[C@@H](C)[C@@H](OC)CN(C)C(=O)c2cc(NC(=O)c3ccc(F)cc3)ccc2OC[C@H]1C | inactive | inactive | inactive
25 | C[C@@H]1CN([C@@H](C)CO)C(=O)c2cc(NS(=O)(=O)c3cccs3)ccc2O[C@@H](C)CCCCO[C@H]1CN(C)S(=O)(=O)c1cn(C)cn1 | inactive | inactive | inactive
26 | COc1ccc(S(=O)(=O)N(C)C[C@H]2Oc3cc(-c4ccccc4OC)ccc3S(=O)(=O)N([C@H](C)CO)C[C@H]2C)cc1 | inactive | active | inactive
27 | Cn1ncc(Br)c1C(=O)NN | inactive | inactive | inactive
28 | NC(=O)c1cccc(CN2CCOCC2)c1 | inactive | inactive | inactive

Row | SMILES | cytotoxicity call [1] | cytotoxicity call [2] | growth inhibition call [3]
29 | C[C@H](CO)N1C[C@H](C)[C@@H](CN(C)CC2CCCCC2)Oc2c(NC(=O)Cc3cn(C)c4ccccc34)cccc2C1=O | inactive | inactive | inactive
30 | COc1cc2ncnc(Nc3ccc(F)c(Cl)c3)c2cc1OCCCN1CCOCC1 | inactive | active | inactive
31 | COc1ccccc1S(=O)(=O)N[C@H]1CC[C@H](CCNC(=O)C2CC2)O[C@H]1CO | inactive | inactive | inactive
32 | CC1(C)OC2COC3(COS(N)(=O)=O)OC(C)(C)OC3C2O1 (stereo not given) | inactive | inactive | inactive
33 | Cc1noc(C)c1S(=O)(=O)Nc1ccc2c(c1)CC(=O)N([C@@H](C)CO)C[C@@H](C)[C@H](CN(C)CC1CC1)O2 | inactive | inactive | inactive
34 | COc1ccc(CN(C)C[C@@H]2Oc3ccc(NS(=O)(=O)c4cn(C)cn4)cc3C(=O)N([C@H](C)CO)C[C@H]2C)cc1 | inactive | inactive | inactive
35 | C[C@@H]1CCCCO[C@H](CN(C)Cc2ccc(C(F)(F)F)cc2)[C@H](C)CN([C@H](C)CO)C(=O)c2cc(NC(=O)Nc3ccc4c(c3)OCO4)ccc2O1 | inactive | active | inactive
36 | O=c1c(O)c(-c2ccc(O)c(O)c2)oc2c(O[C@@H]3O[C@H](CO)[C@H](O)[C@@H](O)[C@H]3O)c(O)cc(O)c12 | inactive | active | inactive
37 | CC(C)NC(=O)N(C)C[C@@H]1Oc2ccc(NC(=O)CCN3CCOCC3)cc2C(=O)N([C@H](C)CO)C[C@@H]1C | inactive | inactive | inactive
38 | CCN1CCCC1CNC(=O)c1cc(S(=O)(=O)CC)c(N)cc1OC (stereo not given) | inactive | active | inactive
39 | C[C@@H]1CN([C@@H](C)CO)C(=O)c2cc(NC(=O)NC3CCCCC3)ccc2O[C@H]1CN(C)C(=O)Nc1cccc2ccccc12 | inactive | inactive | inactive
40 | C[C@@H]1CN([C@H](C)CO)C(=O)c2cc(NC(=O)CCCN(C)C)ccc2O[C@@H](C)CCCCO[C@@H]1CN(C)S(C)(=O)=O | inactive | inactive | inactive
41 | C[C@H]1CCCCO[C@H](CN(C)Cc2ccc(C(F)(F)F)cc2)[C@@H](C)CN([C@@H](C)CO)C(=O)c2cc(NS(=O)(=O)c3ccc(F)cc3)ccc2O1 | inactive | inactive | inactive
42 | CC(C)NC(=O)Nc1ccc2c(c1)C(=O)N([C@H](C)CO)C[C@@H](C)[C@@H](CN(C)C(=O)C1CCCCC1)OCCCC[C@@H](C)O2 | inactive | inactive | inactive
43 | COc1ccccc1CNS(C)(=O)=O | inactive | inactive | inactive
44 | COc1ccccc1NC(=O)Nc1ccc2c(c1)C(=O)N(C)C[C@@H](OC)[C@H](C)CN(Cc1ccccc1Cl)[C@H](C)CO2 | inactive | inactive | inactive
45 | C[C@@H]1CN([C@H](C)CO)C(=O)c2cccc(NS(=O)(=O)c3cccs3)c2O[C@H]1CN(C)C(=O)Nc1cccc2ccccc12 | active | inactive | inactive
46 | O[C@@H]1[C@@H](O)[C@H](O)OC[C@H]1O | inactive | inactive | inactive
47 | C[C@H]1CN([C@@H](C)CO)C(=O)c2cc(NC(=O)Nc3ccc(C(F)(F)F)cc3)ccc2O[C@@H]1CN(C)S(=O)(=O)c1ccc(F)cc1 | inactive | inactive | inactive
48 | Cc1noc(C)c1S(=O)(=O)Nc1cccc2c1O[C@H](CN(C)Cc1ccc(C(=O)O)cc1)[C@@H](C)CN([C@H](C)CO)C2=O | inactive | inactive | inactive
49 | C[C@H](CO)N1C[C@H](C)[C@@H](CN(C)C(=O)Nc2ccc(C(F)(F)F)cc2)OCCCC[C@H](C)Oc2ccc(NC(=O)NC3CCCCC3)cc2C1=O | inactive | inactive | inactive
50 | C/C=C\C1=C(C(=O)O)N2C(=O)[C@H](NC(=O)[C@@H](N)c3ccc(O)cc3)[C@@H]2SC1 | inactive | inactive | inactive
51 | Cc1noc(C)c1S(=O)(=O)N(C)C[C@@H]1Oc2ccc(NS(=O)(=O)c3cccs3)cc2CC(=O)N([C@H](C)CO)C[C@H]1C | inactive | inactive | inactive
52 | CCS(=O)(=O)Nc1ccc2c(c1)C(=O)N(C)C[C@@H](OC)[C@@H](C)CN(CCC(F)(F)F)[C@@H](C)CO2 | inactive | inactive | inactive
53 | CCN1C[C@@H]2CN(C(=O)c3ccnn3C)C[C@H]2C1=O | inactive | inactive | inactive
54 | C[C@H](CO)N1C[C@H](C)[C@H](CN(C)C(=O)C2CCOCC2)Oc2ncc(-c3cccc(C#N)c3)cc2C1=O | inactive | inactive | inactive
55 | CCC(C)CCCCC(=O)NC(CCN)C(=O)NC(C(=O)NC(CCN)C(=O)NC1CCNC(=O)C(C(C)O)NC(=O)C(CCN)NC(=O)C(CCN)NC(=O)C(CC(C)C)NC(=O)C(Cc2ccccc2)NC(=O)C(CCN)NC1=O)C(C)O.O=S(=O)(O)O (stereo not given) | inactive | inactive | active
